Biological target: the molecule itself
Assay: SEC; gel-filtration profiles of the purified unligated and ligated CHK2 proteins

B1: pT68CHK2, ligation product containing CHK2 […] with a phosphorylated Thr-68 and a Ser-73 to Cys mutation (domain or fragment)
chain: not shown
modifications: phosphorylated Thr-68 (pT in LETVSpTQELY)
notes: synthetic peptide 15 (H-LETVSpTQELY-MPAA thioester), CHK2 residues 63-72; the sixth residue is phosphothreonine (Thr-68); CHK2 serine/threonine kinase, […] with N-terminal cysteine (S73C), prepared by expression; Semisynthetic protein; Expression host and tags of the […] portion may stand in the SI; also called phosphorylated CHK2 protein; ligated pT68CHK2; source: native chemical ligation of …
- stoichiometry N: 2

— article PMC5113665 (Angewandte Chemie (International Ed. in English), 2016)
